Measured values from paper PMC9911399, “Two distinct binding modes provide the RNA-binding protein RbFox with extraordinary sequence specificity”.
Residue numbers refer to the chain shown, from its start. The list shows a part of the results.

T1: RBFOX1 RRM RbFoxmut (Fox-RRM*) (Homo sapiens, UniProt Q9NWB1 109-208, R118D;E147R;N151S;E152T)
T1 sequence: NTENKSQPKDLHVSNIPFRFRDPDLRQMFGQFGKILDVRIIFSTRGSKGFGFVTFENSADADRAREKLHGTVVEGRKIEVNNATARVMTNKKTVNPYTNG

B1: AAUAGCU (DNA:RNA)
RNA: GGGAGACCGGAAUUCAGAUUGUCCAAUAGCUUUAAAUCCCGUCGUAGCCACCA
DNA 1: CAATCTGAATTCCGGTCTCCC
DNA 2: TGGTGGCTACGACGGGATT
B2: UUGAUAA (DNA:RNA)
RNA: B1 RNA with A25U, A26U, U27G, G29U, C30A, U31A
DNA 1: CAATCTGAATTCCGGTCTCCC
DNA 2: TGGTGGCTACGACGGGATT
B3: GAGAGUU (DNA:RNA)
RNA: B1 RNA with A25G, U27G, C30U
DNA 1: CAATCTGAATTCCGGTCTCCC
DNA 2: TGGTGGCTACGACGGGATT
B4: UUAGUAG (DNA:RNA)
RNA: GGGAGACCGGAAUUCAGAUUGUCCUUAGUAGUUAAAUCCCGUCGUAGCCACCA
DNA 1: CAATCTGAATTCCGGTCTCCC
DNA 2: TGGTGGCTACGACGGGATT
B5: AAGCCCA (DNA:RNA)
RNA: B1 RNA with U27G, A28C, G29C, U31A
DNA 1: CAATCTGAATTCCGGTCTCCC
DNA 2: TGGTGGCTACGACGGGATT
B6: GCGGUGU (DNA:RNA)
RNA: B4 RNA with U25G, U26C, A27G, A30G, G31U
DNA 1: CAATCTGAATTCCGGTCTCCC
DNA 2: TGGTGGCTACGACGGGATT
B7: GUCGCUU (DNA:RNA)
RNA: B4 RNA with U25G, A27C, U29C, A30U, G31U
DNA 1: CAATCTGAATTCCGGTCTCCC
DNA 2: TGGTGGCTACGACGGGATT
B8: UGCGUUC (DNA:RNA)
RNA: B4 RNA with U26G, A27C, A30U, G31C
DNA 1: CAATCTGAATTCCGGTCTCCC
DNA 2: TGGTGGCTACGACGGGATT
B9: CUCCAAC (DNA:RNA)
RNA: B4 RNA with U25C, A27C, G28C, U29A, G31C
DNA 1: CAATCTGAATTCCGGTCTCCC
DNA 2: TGGTGGCTACGACGGGATT

These binders were tested against T1, RBFOX1 RRM RbFoxmut (Fox-RRM*) (assay: EMSA; HiTS-Eq, 1 nM pool, 10 min; buffer printed only for the single-RNA assays: 10 mM Tris pH 7.5, 150 mM NaCl, 3.4 mM EDTA, 0.001% NP-40, 30 C). Settings: tags: His6 N-terminal (pET28a); label: 5' 32P.
Procedure, shortened: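 A pool of RNA with 7 randomized nucleotides, 5′-radiolabelled and with DNA-annealed flanks, was equilibrated at 1 nM for 10 min in 50 µL with purified RbFox RRM, wild type or mutant, across increasing protein concentrations. Free RNA was separated by 8% native PAGE, excised, reverse-transcribed, barcoded by PCR and sequenced. Relative association constants were obtained from read-count changes of each RNA species versus the control reaction and normalised to the cognate motif.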

Binder	binding signal
B1	0.0964 KA relative to UGCAUGU
B2	0.0953 KA relative to UGCAUGU
B3	0.0961 KA relative to UGCAUGU
B4	0.147 KA relative to UGCAUGU
B5	0.0733 KA relative to UGCAUGU
B6	0.154 KA relative to UGCAUGU
B7	0.0749 KA relative to UGCAUGU
B8	0.095 KA relative to UGCAUGU
B9	0.0576 KA relative to UGCAUGU
